This is one part of the list. Single values of this set are uncertain. Values with irradiation are relative to irradiated vehicle.
Tests used:
A549-Dual [1] = assay: NF-kB reporter (SEAP) activity, viability-corrected, relative to vehicle (fold change vs vehicle); higher = more activation of STING-IRF / NF-kB immune response reporter
A549-Dual [2] = assay: ISRE reporter (Lucia luciferase) activity, viability-corrected, relative to vehicle (fold change vs vehicle); higher = more activation of STING-IRF / NF-kB immune response reporter
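For NF-kB reporter (SEAP) activity, viability-corrected, relative to vehicle in this document: viability correction based on the alamar blue assay, with concentrations leaving 10% survival or less dropped.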

SMILES | NF-kB reporter (A549-Dual [1]; 0.1 µM, irradiation: 8 Gy/4 fr) | NF-kB reporter (A549-Dual [1]; 0.1 µM, irradiation: none) | NF-kB reporter (A549-Dual [1]; 0.3 µM, irradiation: 8 Gy/4 fr) | NF-kB reporter (A549-Dual [1]; 0.3 µM, irradiation: none) | NF-kB reporter (A549-Dual [1]; 1 µM, irradiation: 8 Gy/4 fr) | NF-kB reporter (A549-Dual [1]; 1 µM, irradiation: none) | NF-kB reporter (A549-Dual [1]; 3 µM, irradiation: 8 Gy/4 fr) | NF-kB reporter (A549-Dual [1]; 3 µM, irradiation: none) | NF-kB reporter (A549-Dual [1]; 10 µM, irradiation: 8 Gy/4 fr) | NF-kB reporter (A549-Dual [1]; 10 µM, irradiation: none) | ISRE reporter (A549-Dual [2]; 0.1 µM, irradiation: 8 Gy/4 fr) | ISRE reporter (A549-Dual [2]; 0.1 µM, irradiation: none) | ISRE reporter (A549-Dual [2]; 0.3 µM, irradiation: 8 Gy/4 fr) | ISRE reporter (A549-Dual [2]; 0.3 µM, irradiation: none) | ISRE reporter (A549-Dual [2]; 1 µM, irradiation: 8 Gy/4 fr) | ISRE reporter (A549-Dual [2]; 1 µM, irradiation: none) | ISRE reporter (A549-Dual [2]; 3 µM, irradiation: 8 Gy/4 fr) | ISRE reporter (A549-Dual [2]; 3 µM, irradiation: none) | ISRE reporter (A549-Dual [2]; 10 µM, irradiation: 8 Gy/4 fr) | ISRE reporter (A549-Dual [2]; 10 µM, irradiation: none)
COc1c(C)c2c(c(O)c1C/C=C(\C)CCC(=O)O)C(=O)OC2 [Mycophenolic acid] | 1.2 | 1.86 | 0.807 | 2.3 | 1.18 | 1.41 | 1.77 | 1.55 | 1.22 | 1.55 | 1.16 | 1.81 | 0.982 | 0.972 | 0.176 | 0.608 | 0.663 | 0.304 | 0.0895 | 0.326
NC(=O)c1cnc2[nH]ccc2c1NC1C2CC3CC1CC(O)(C3)C2 (stereo not given) | 0.947 | 1.22 | 1.02 | 1.33 | 1.27 | 1.06 | 0.771 | 2.89 | 2.59 | 1.23 | 0.578 | 0.857 | 0.624 | 0.423 | 0.349 | 0.373 | 0.377 | 0.397 | 0.0629 | 0.262
CCN(CC)Cc1cc(Nc2ccnc3cc(Cl)ccc23)ccc1O.Cl.Cl [Amodiaquine hydrochloride] | 1.04 | 1.12 | 1.03 | 1.04 | 1.1 | 0.898 | 1.38 | 1.01 | 0.99 | 0.979 | 0.935 | 1.09 | 0.865 | 1.12 | 1.06 | 1.13 | 0.877 | 1.43 | 1.45 | 1.71
COC(=O)CC(O)(CCCC(C)(C)O)C(=O)OC1C(OC)=CC23CCCN2CCc2cc4c(cc2C13)OCO4 (stereo not given) [Homoharringtonine] | 0.835 | 0.807 | 0.864 | 0.812 | 1.17 | 1.13 | 2.15 | 4.46 | 1.82 | 3.05 | 0.729 | 1.02 | 0.0272 | 0.14 | 0.0352 | 0.161 | 0.0687 | 0.341 | 0.0465 | 0.488
CCOCC(O)COc1ccc(NC(=O)CC[S+](C)C)cc1.Cc1ccc(S(=O)(=O)[O-])cc1 (stereo not given) [Suplatast Tosylate] | 1.15 | 1.74 | 1.25 | 1.59 | 1.3 | 1.31 | 1.86 | 1.36 | 1.03 | 1.61 | 1.14 | 1.49 | 0.986 | 1.52 | 0.974 | 1.3 | 0.83 | 0.908 | 0.23 | 0.51
COC1CC2CCC(C)C(O)(O2)C(=O)C(=O)N2CCCCC2C(=O)OC(C(C)CC2CCC(OCCO)C(OC)C2)CC(=O)C(C)/C=C(\C)C(O)C(OC)C(=O)C(C)CC(C)/C=C/C=C/C=C/1C (stereo not given) [Everolimus (RAD001)] | 0.954 | 1.06 | 1 | 1.14 | 0.872 | 1.09 | 0.999 | 0.987 | 0.993 | 0.998 | 0.775 | 1.15 | 0.789 | 1.32 | 0.642 | 1.27 | 0.692 | 1.18 | 0.619 | 1.26
Cc1ccc(NC(=O)c2ccc(CN3CCN(C)CC3)cc2)cc1Nc1nc(-c2cccnc2)cs1 [Masitinib (AB1010)] | 1.04 | 1.12 | 1.06 | 1.11 | 0.886 | 1.34 | 0.969 | 0.925 | 0.758 | 0.828 | 1.11 | 1.08 | 1.24 | 0.944 | 0.93 | 0.877 | 0.832 | 0.959 | 0.772 | 1.09
CCCC1CC(C(=O)NC(C(C)O)C2OC(SC)C(O)C(O)C2O)N(C)C1.Cl (stereo not given) [Lincomycin HCl] | 0.988 | 1.03 | 0.948 | 1.06 | 1.03 | 1.44 | 0.896 | 1.11 | 0.955 | 1.1 | 0.997 | 1.02 | 1.18 | 1.11 | 1.05 | 1.16 | 1.04 | 0.929 | 1.02 | 1.08
CC(C)C1C(=O)NC(CCCNC(=N)N)C(=O)NCC(=O)NC(CC(=O)O)C(=O)NC(Cc2ccccc2)C(=O)N1C.O=C(O)C(F)(F)F (stereo not given) | 0.878 | 1.07 | 0.931 | 0.941 | 0.994 | 0.959 | 0.852 | 1.11 | 0.923 | 1.04 | 0.983 | 1.04 | 1.2 | 1.15 | 1.1 | 1.16 | 0.78 | 1.02 | 0.752 | 1.3
O=C(O)COc1nn(Cc2ccccc2)c2ccccc12 [Bendazac] | 0.783 | 1.08 | 0.663 | 1.06 | 1.14 | 0.695 | 0.829 | 0.675 | 0.571 | 0.436 | 0.785 | 1.1 | 0.571 | 0.956 | 0.961 | 0.614 | 0.539 | 0.618 | 0.645 | 0.86
O=C1CCC(C(=O)N2CSCC2C(=O)O)N1 (stereo not given) [Pidotimod] | 1.25 | 3.03 | 1.07 | 2.35 | 2.15 | 1.38 | 2.55 | 1.64 | 1.91 | 1.21 | 1.14 | 2.61 | 1.27 | 1.95 | 1.93 | 1.42 | 1.39 | 1.33 | 1.68 | 1
CONC(=O)Nc1ccc(-c2sc3c(c2CN(C)C)c(=O)n(-c2ccc(OC)nn2)c(=O)n3Cc2c(F)cccc2F)cc1 [Relugolix] | 0.958 | 0.994 | 0.949 | 0.953 | 0.893 | 1.2 | 0.92 | 0.956 | 0.954 | 0.969 | 0.974 | 1.01 | 1.24 | 1 | 0.998 | 0.929 | 1.11 | 0.733 | 0.939 | 1.11

Source: the supplement of paper PMC9174493
